In the supplement of paper PMC10369915 one finds enrichment score data, which are given here for 18 molecules.

B1: NCR1_Y84_D87Y (peptide)
chain: NKVKFYIPYMN
B2: NDUFS1_Y236_R241W (peptide)
chain: LTSKPYAFTAW
B3: NCAPD2_Y6_F8S (peptide)
chain: MAPQMYESHLP
B4: NARS2_Y138_E137D (peptide)
chain: RHPLDYLRQYP
B5: NARS2_Y138_E137D_YF (peptide)
chain: RHPLDYLRQFP
B6: NBN_Y679_Y679H (peptide)
chain: GINDDHGQLKN
B7: NDRG2_Y47 (peptide)
chain: SVETPYGSVTF
B8: NAXD_Y85 (peptide)
chain: GGCQEYTGAPY
B9: NCF1_Y41 (peptide)
chain: SEKVVYRRFTE
B10: NDUFA8_Y142 (peptide)
chain: LPENPYHSRPR
B11: MYOM3_Y343_M344T (peptide)
chain: EDEGLYTVRVP
B12: NARS2_Y138 (peptide)
chain: RHPLEYLRQYP
B13: NBN_Y679 (peptide)
chain: GINDDYGQLKN
B14: MYOM2_Y317_V321L (peptide)
chain: PRAEWYRDDLL
B15: NCF2_Y125_A128V (peptide)
chain: ACEVLYNIVFM
B16: NAXD_Y85_G81S (peptide)
chain: GSCQEYTGAPY
B17: MYOM2_Y871 (peptide)
chain: TTANRYLKVSD
B18: NAXD_Y85_G81S_YF (peptide)
chain: GSCQEYTGAPF

The other results are listed elsewhere or left out. Cut-off read from the data, not from the text of the source: active = 3.2 or more and inactive = the rest. Most of these values are background signal.
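Note: displayed peptides selected on beads carrying the immobilized SH2 domain, with library peptides lacking any tyrosine serving as negative controls.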

The first assay has as its target SHP2 C-SH2 domain E139D. The assay can be described thus: enrichment score (SH2-bound / input frequency) (ratio); bacterial display of known human phosphotyrosine sites (pTyr-Var adds point mutants) read by sequencing; higher = stronger binding; tyrosines were phosphorylated by kinases first. The settings on record: peptide library: pTyr-Var.
On to B1, for which the enrichment score is active: 3.97.

As for B2, the enrichment score is inactive: 0.983.

As to B3, the enrichment score was inactive: 0.817.

Take B4: the enrichment score is inactive: 1.57.

As for B5, the enrichment score is inactive: 1.12.

Consider B6, for which the enrichment score is inactive: 0.451.

On to B7, for which the enrichment score is inactive: 0.92.

As to B8, the enrichment score was inactive: 0.847.

With B9, the enrichment score was inactive: 0.241.

On to B10, for which the enrichment score is inactive: 0.584.

B11: the enrichment score is inactive: 0.855.

For the molecule B12, the enrichment score was inactive: 1.51.

Turning to B13, the enrichment score was inactive: 0.427.

In the case of B14, the enrichment score was inactive: 0.807.

Take B15: the enrichment score is inactive: 1.36.

On to B16, for which the enrichment score is inactive: 0.576.

Regarding B17, the enrichment score is inactive: 0.519.

Turning to B18, the enrichment score was inactive: 0.618.

The target in another assay is SHP2 C-SH2 domain wild-type. The description is as above. To be noted: peptide library: pTyr-Var.
As for B1, the enrichment score is active: 3.94.

For B2, the enrichment score is inactive: 0.971.

For the molecule B3, the enrichment score was inactive: 0.67.

As to B4, the enrichment score is inactive: 1.52.

Take B5: the enrichment score is inactive: 0.831.

As to B6, the enrichment score is inactive: 0.513.

For B7, the enrichment score is inactive: 0.83.

On to B8, for which the enrichment score is inactive: 0.767.

On to B9, for which the enrichment score is inactive: 0.312.

On to B10, for which the enrichment score is inactive: 0.63.

On to B11, for which the enrichment score was inactive: 0.664.

In the case of B12, the enrichment score is inactive: 1.85.

On to B13, for which the enrichment score is inactive: 0.63.

For B14, the enrichment score was inactive: 0.868.

As to B15, the enrichment score was inactive: 1.27.

Consider B16, for which the enrichment score is inactive: 0.771.

With B17, the enrichment score was inactive: 0.381.

For B18, the enrichment score is inactive: 0.844.

The target in a further assay is SHP2 N-SH2 domain L43F. Described as above. The settings on record: peptide library: pTyr-Var.
With B1, the enrichment score is active: 3.53.

With B2, the enrichment score was inactive: 0.896.

For the molecule B3, the enrichment score was inactive: 0.789.

For B4, the enrichment score was inactive: 1.62.

Turning to B5, the enrichment score was inactive: 0.879.

Consider B6, for which the enrichment score is inactive: 0.595.

Turning to B7, the enrichment score is inactive: 0.87.

As for B8, the enrichment score was inactive: 0.777.

With B9, the enrichment score is inactive: 0.323.

Turning to B10, the enrichment score is inactive: 0.675.

For the molecule B11, the enrichment score was inactive: 0.748.

Turning to B12, the enrichment score is inactive: 1.43.

On to B13, for which the enrichment score was inactive: 0.37.

For the molecule B14, the enrichment score was inactive: 0.693.

For B15, the enrichment score was inactive: 1.35.

Take B16: the enrichment score was inactive: 0.667.

Take B17: the enrichment score is inactive: 0.444.

Turning to B18, the enrichment score was inactive: 0.483.

In another assay the target is SHP2 N-SH2 domain T42A. Described as above. The settings on record: peptide library: pTyr-Var.
In the case of B1, the enrichment score was active: 3.38.

Take B2: the enrichment score is inactive: 1.09.

For the molecule B3, the enrichment score was inactive: 0.729.

On to B4, for which the enrichment score was inactive: 1.49.

Turning to B5, the enrichment score is inactive: 0.871.

As for B6, the enrichment score was inactive: 0.4.

On to B7, for which the enrichment score is inactive: 0.841.

On to B8, for which the enrichment score is inactive: 0.738.

For the molecule B9, the enrichment score is inactive: 0.436.

For the molecule B10, the enrichment score is inactive: 0.619.

With B11, the enrichment score was inactive: 0.71.

For the molecule B12, the enrichment score is inactive: 1.24.

For the molecule B13, the enrichment score is inactive: 0.624.

Regarding B14, the enrichment score is inactive: 0.646.

As to B15, the enrichment score is inactive: 1.29.

Turning to B16, the enrichment score is inactive: 0.611.

On to B17, for which the enrichment score was inactive: 0.371.

Take B18: the enrichment score was inactive: 0.584.

For a further assay, the target named is SHP2 N-SH2 domain T52S. Described as above. The settings on record: peptide library: pTyr-Var.
Take B1: the enrichment score was active: 3.34.

On to B2, for which the enrichment score was inactive: 1.13.

As for B3, the enrichment score was inactive: 0.886.

For B4, the enrichment score was inactive: 1.63.

For B5, the enrichment score was inactive: 0.953.

As for B6, the enrichment score was inactive: 0.51.

For B7, the enrichment score is inactive: 0.761.

As for B8, the enrichment score was inactive: 0.527.

Regarding B9, the enrichment score was inactive: 0.386.

As for B10, the enrichment score is inactive: 0.631.

On to B11, for which the enrichment score was inactive: 0.564.

In the case of B12, the enrichment score is inactive: 1.18.

For the molecule B13, the enrichment score is inactive: 0.64.

With B14, the enrichment score is inactive: 0.726.

Take B15: the enrichment score is inactive: 1.03.

Turning to B16, the enrichment score is inactive: 0.69.

On to B17, for which the enrichment score is inactive: 0.308.

As for B18, the enrichment score was inactive: 0.594.

The target in another assay is SHP2 N-SH2 domain wild-type. The assay is described as above. The settings on record: peptide library: pTyr-Var.
For B1, the enrichment score is active: 3.63.

As to B2, the enrichment score is inactive: 0.95.

On to B3, for which the enrichment score was inactive: 1.04.

As for B4, the enrichment score is inactive: 1.29.

Regarding B5, the enrichment score is inactive: 0.923.

Consider B6, for which the enrichment score is inactive: 0.553.

In the case of B7, the enrichment score was inactive: 0.753.

On to B8, for which the enrichment score was inactive: 0.923.

In the case of B9, the enrichment score was inactive: 0.386.

Consider B10, for which the enrichment score is inactive: 0.556.

Turning to B11, the enrichment score was inactive: 0.582.

For B12, the enrichment score was inactive: 1.53.

On to B13, for which the enrichment score was inactive: 0.603.

For B14, the enrichment score is inactive: 0.897.

For the molecule B15, the enrichment score was inactive: 1.92.

With B16, the enrichment score is inactive: 0.816.

As for B17, the enrichment score is inactive: 0.503.

B18: the enrichment score is inactive: 0.622.
